{"source": "PubChem BioAssay AID2069", "about": "(Sanford-Burnham Center for Chemical Genomics, 2009)", "note": "Hit rate of the full screen: of about 1,200 compounds, about 210 (18%) were called active. No stated cut-off is given here; in the data, active means inhibition above about 30%; inactive means the rest. This is a selection; strong and weak results do not stand in their true shares.", "data": [{"assay": "HTRF signal interference by compounds, confirmation, artefact control for SUMOylation inhibitor project, biochemical, uHTS (AID 2069)", "conditions": "HTRF interference counterscreen, fluorescence, at 35 µM, active compounds read high", "values": [{"smiles": "Cc1cc(C)c(S(=O)(=O)Nc2cc(SCC(=O)O)c(O)c3ccccc23)cc1C", "inhibition": "inactive: 2.6%"}, {"smiles": "Cc1cccc(S(=O)(=O)C(C#N)c2nc3ccccc3nc2N2CCCC2)c1", "note": "(stereo not drawn)", "inhibition": "inactive: 0.4%"}, {"smiles": "Fc1ccc(-c2ccnc3nc(N4CCOCC4)nn23)cc1", "inhibition": "active: 32.5%"}, {"smiles": "COc1ccc(N2C(=O)[C@@H]3[C@H](C2=O)[C@H]2c4ccccc4C=CN2[C@@H]3C(C)=O)cc1", "inhibition": "inactive: 9.4%"}, {"smiles": "O=c1c(-c2c(O)cc(O)c3c(=O)cc(-c4ccc(O)cc4)oc23)c(-c2ccc(O)cc2)oc2cc(O)cc(O)c12", "inhibition": "active: 35.6%"}, {"smiles": "CCOC(=O)C1=C(N)n2c(s/c(=C/c3ccco3)c2=O)=C(C(=O)OC)C1c1ccco1", "note": "(stereo not drawn)", "inhibition": "inactive: -8.65%"}, {"smiles": "Cc1ccc(-n2cccn2)c([C@@H]2C[C@H]3CN(C)C(=O)[C@]34CCCN24)c1", "inhibition": "inactive: 4.05%"}, {"smiles": "CCCCCn1c(N)c(C#N)c2nc3ccccc3nc21", "inhibition": "inactive: 16.7%"}, {"smiles": "Cc1ccc(NC(=O)COc2ccc(/C=C3/NC(=O)NC3=O)cc2)cc1", "inhibition": "inactive: 6.2%"}, {"smiles": "CCOC(=O)C(CCCCOc1ccc([N+](=O)[O-])cc1)C(=O)OCC", "inhibition": "inactive: 3.85%"}, {"smiles": "Oc1c(C=Nc2cccc3nsnc23)ccc2ccccc12", "inhibition": "inactive: 14.2%"}, {"smiles": "C=CCOc1c(Br)cc(/C=C2\\SC(=Nc3ccccc3)NC2=O)cc1OC", "inhibition": "inactive: 9.1%"}, {"smiles": "C=CCN1C(=O)N(/C=C/C)c2cccc3cccc1c23", "inhibition": "inactive: -13.1%"}, {"smiles": "CC(C)N1CCC2(CC1)C(C#N)=C(N)NC(S)=C2C#N", "inhibition": "active: 33.9%"}, {"smiles": "CCN(c1ccccc1)S(=O)(=O)c1ccc(Cl)c(NC(=O)COC(=O)c2cc(O)c3ccccc3c2O)c1", "inhibition": "inactive: 0.45%"}, {"smiles": "CCC(=O)c1ccccc1OCCSc1nc(C)cc(=O)[nH]1", "inhibition": "inactive: -8.6%"}, {"smiles": "COc1ccc(-c2cc(-c3ccccc3)n3ncnc3n2)cc1", "inhibition": "active: 53.7%"}, {"smiles": "S=c1[nH]nc(-c2cccc(Cl)c2)n1/N=C/c1ccc(-c2ccccc2Br)o1", "inhibition": "inactive: 7.3%"}, {"smiles": "O=C(N/N=C/c1ccc(-c2cccc([N+](=O)[O-])c2)o1)c1ccccc1O", "inhibition": "inactive: 2.3%"}, {"smiles": "C=CCOC(=O)C(C#N)c1nc2ccccc2nc1N1CCN(Cc2ccccc2)CC1", "note": "(stereo not drawn)", "inhibition": "inactive: -1.65%"}, {"smiles": "Cc1cccc(C)c1OCC(=O)N=Nc1c(O)[nH]c2ccc(Br)cc12", "inhibition": "inactive: -1.15%"}, {"smiles": "COc1ccc(OC)c(/C=C2\\S/C(=N/NC(=O)c3ccc4ccccc4c3)NC2=O)c1", "inhibition": "inactive: 8.75%"}, {"smiles": "Cc1oc2c(c1C(=O)O)C(=O)c1ccccc1C2=O", "inhibition": "inactive: -5.95%"}, {"smiles": "COc1ccc2c(c1)Cc1sc(NC(=O)c3cccs3)nc1-2", "inhibition": "inactive: 13.1%"}, {"smiles": "Oc1ccc(N=Cc2ccc(-c3cccs3)s2)cc1", "inhibition": "inactive: -1.7%"}, {"smiles": "Nc1ccc(O)cc1C(=O)OCC(=O)c1ccc(C2CCCCC2)cc1", "inhibition": "inactive: 21.6%"}, {"smiles": "C/C(=C\\C(=O)c1ccccc1)Nc1ccc(O)cc1", "inhibition": "inactive: 10.8%"}, {"smiles": "CC1=C(C(=O)Nc2ccccc2)C(c2ccc(C)cc2)N=C(Nc2nc3ccccc3o2)N1", "note": "(stereo not drawn)", "inhibition": "inactive: 10.2%"}, {"smiles": "COC(=O)c1cc(O)cc(OC)c1Oc1cc(C)cc(O)c1C(=O)O", "inhibition": "inactive: 11%"}, {"smiles": "[O-]/C(=C(\\C(=S)Nc1cccc2ccccc12)[n+]1ccccc1)c1ccc(Cl)s1", "inhibition": "inactive: -8.3%"}, {"smiles": "CN(CCC#N)C(=O)COC(=O)c1c2c(nc3ccccc13)/C(=C/c1ccco1)CC2", "inhibition": "active: 36.5%"}, {"smiles": "COn1c(C)c(C)c2c3nonc3ccc21", "inhibition": "inactive: 15.1%"}, {"smiles": "Cc1cc(/C=C2\\C(=O)NN(c3ccccc3)C2=O)c(C)n1-c1ccccc1O", "inhibition": "inactive: -1.5%"}, {"smiles": "Cc1ccc(C)c(NC(=S)Nc2cccc3cnccc23)c1", "inhibition": "inactive: 4.35%"}, {"smiles": "CCCCN(C)S(=O)(=O)c1cc(Br)cc2c1N(C(=O)C1CC1)CC2", "inhibition": "inactive: -7.7%"}, {"smiles": "COc1cc(/C=C2\\C(=O)N(CCC#N)N=C2C)ccc1OCC(=O)Nc1ccccc1", "inhibition": "inactive: -9.5%"}, {"smiles": "O=C(Nc1ccccc1)Nc1ccno1", "inhibition": "active: 47.1%"}, {"smiles": "S=C(Nc1ccc2nsnc2c1)N1CCCC1", "inhibition": "active: 35.6%"}, {"smiles": "CSc1nnc(-c2ccco2)c(-c2ccco2)n1", "inhibition": "inactive: 27.1%"}, {"smiles": "COC(=O)c1nc2n(n1)C(c1ccc([N+](=O)[O-])cc1)C(C(=O)Nc1ccc(Cl)cc1)=C(C)N2", "note": "(stereo not drawn)", "inhibition": "inactive: 1.4%"}, {"smiles": "Cc1ccc(C)c(S(=O)(=O)C(C#N)c2nc3ccccc3nc2N2CCOCC2)c1", "note": "(stereo not drawn)", "inhibition": "inactive: 9.05%"}, {"smiles": "Fc1cccc(NC(=S)Nc2cccc3ccccc23)c1", "inhibition": "inactive: -11.6%"}, {"smiles": "Cc1ccc(C)c(S(=O)(=O)c2c(N)n(/N=C/c3ccco3)c3nc4ccccc4nc23)c1", "inhibition": "inactive: -11.7%"}, {"smiles": "CCC(NC(=O)Cc1c(C)c2c(cc(C)c3c(C)c(C)oc32)oc1=O)C(=O)O", "note": "(stereo not drawn)", "inhibition": "active: 51.6%"}, {"smiles": "Cc1ccc(Cn2nnnc2CN2CCC(NC(=O)C(C)(C)C)CC2)cc1", "inhibition": "inactive: 5.15%"}, {"smiles": "Cc1cc(-c2csc(NC(=O)c3ccc(=O)[nH]c3)n2)c(C)n1Cc1ccccc1", "inhibition": "inactive: -12.3%"}, {"smiles": "NC(=O)c1ccc(N=C2C(=O)Nc3ccc([N+](=O)[O-])cc32)cc1", "inhibition": "inactive: -4.65%"}, {"smiles": "CC(C)(C)c1cc(=O)n(-c2ccccc2)[nH]1", "inhibition": "inactive: -0.65%"}, {"smiles": "Cc1ccc(NC(=O)C2CCN(C(=O)c3ccco3)CC2)cc1", "inhibition": "inactive: 4.45%"}, {"smiles": "Brc1ccc(OCCN2CCOCC2)cc1", "inhibition": "inactive: -8.15%"}, {"smiles": "CCOC(=O)NC(=O)COC(=O)c1ccc(O)cc1", "inhibition": "inactive: -2.1%"}, {"smiles": "O=C(Cc1cccs1)N/N=C/C=C\\c1ccco1", "inhibition": "inactive: -3.3%"}, {"smiles": "Cc1cccc(-c2n[nH]c(=S)n2/N=C/C=C/c2ccco2)c1", "inhibition": "inactive: 22.3%"}, {"smiles": "COc1cc2c(cc1OC)C(C)=NC1(CCCCC1)C2", "inhibition": "active: 31.6%"}, {"smiles": "O=C(NCc1ccccc1)Nc1cccn(Cc2c(F)cccc2Cl)c1=O", "inhibition": "inactive: 3.05%"}, {"smiles": "O=C(Nc1cccc2ccccc12)N1CCc2ccccc2C1", "inhibition": "inactive: -0.3%"}, {"smiles": "Cc1ccc(/C=C(\\C#N)C(=O)Nc2cccc3ncccc23)o1", "inhibition": "inactive: 2.8%"}, {"smiles": "Cc1ccc(C)c(-c2nc3ccc(N)cc3[nH]2)c1", "inhibition": "active: 57%"}, {"smiles": "Cc1cc(/C=N/Nc2ccc([N+](=O)[O-])cn2)c(C)n1-c1ccc(C(=O)O)cc1", "inhibition": "inactive: -10.8%"}, {"smiles": "O=C(O)CC(C(=O)O)N1C(=O)/C(=C/C=C/c2ccco2)SC1=S", "note": "(stereo not drawn)", "inhibition": "inactive: 5.6%"}, {"smiles": "Cc1ccc2[nH]c3c(c2c1)CN(C(=O)CN1CCCc2ccccc21)CC3", "inhibition": "inactive: 6%"}, {"smiles": "Cc1cc(NC(=O)Cn2c(=O)n(Cc3ccccc3)c(=O)c3ccccc32)no1", "inhibition": "inactive: -6.1%"}, {"smiles": "COc1cc(/C=C2\\SC(=O)N(CC(=O)Nc3ccccc3F)C2=O)cc(Cl)c1O", "inhibition": "inactive: 2%"}, {"smiles": "N#CC(C(=O)NC1CC1)c1nc2ccccc2nc1N1CCCC1", "note": "(stereo not drawn)", "inhibition": "inactive: -0.3%"}, {"smiles": "CC(C)c1onc(C(=O)N2CCC(C(N)=O)CC2)c1[N+](=O)[O-]", "inhibition": "inactive: 6.25%"}, {"smiles": "O=C(NC1(O)C(=O)c2ccccc2C1=O)c1ccccc1", "inhibition": "active: 57.5%"}, {"smiles": "O=c1nc2s/c(=C\\c3ccco3)c(=O)n2nc1Cc1ccccc1", "inhibition": "inactive: 13.8%"}, {"smiles": "O=C(Nc1cccc(N=Cc2cc(Br)cc(Br)c2O)c1)c1ccco1", "inhibition": "inactive: 17.1%"}]}]}
